The results in this text go back to ChEMBL document CHEMBL1961873, “Compounds: GSK PKIS; Assays: Nanosyn kinase panel” (2012).

For part of these data: This list holds what a sample rich in strong results left over. This is a selection; strong and weak results do not stand in their true shares.

The first assay addresses 5'-AMP-activated protein kinase catalytic subunit alpha-1 (Homo sapiens) (UniProt Q13131). Conditions: at 1 µM.
Chain of UniProt Q13131 (Q13131 whole entry, looked up): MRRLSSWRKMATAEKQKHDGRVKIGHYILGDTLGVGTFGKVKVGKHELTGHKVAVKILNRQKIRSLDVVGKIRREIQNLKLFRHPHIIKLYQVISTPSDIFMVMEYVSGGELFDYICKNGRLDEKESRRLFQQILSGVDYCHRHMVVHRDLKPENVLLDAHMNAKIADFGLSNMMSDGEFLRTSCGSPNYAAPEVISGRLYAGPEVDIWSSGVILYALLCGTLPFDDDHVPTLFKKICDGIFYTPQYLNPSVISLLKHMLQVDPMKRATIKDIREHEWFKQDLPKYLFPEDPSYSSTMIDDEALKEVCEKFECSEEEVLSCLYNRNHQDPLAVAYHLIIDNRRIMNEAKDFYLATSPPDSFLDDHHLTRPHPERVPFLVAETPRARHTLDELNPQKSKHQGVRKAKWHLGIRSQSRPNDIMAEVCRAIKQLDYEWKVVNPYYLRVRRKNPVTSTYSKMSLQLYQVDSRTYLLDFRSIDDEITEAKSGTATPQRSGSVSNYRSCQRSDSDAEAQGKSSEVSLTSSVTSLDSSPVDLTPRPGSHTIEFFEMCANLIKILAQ
In the case of `CS(=O)(=O)c1ccc(Oc2nccc(-c3c(-c4ccc(F)cc4)ncn3C3CCNCC3)n2)cc1`, the inhibition (usually the relative decrease from the control value, in per cent) was 3.51%.
With `O=C1NC(=O)C(c2ccccc2Cl)=C1Nc1cc(Cl)c(O)c(Cl)c1`, the inhibition was determined as 4.1%.
For `CC(C)(C)c1ccc(Oc2nccc(-c3c(-c4ccc(F)cc4)ncn3C3CCNCC3)n2)cc1`, the inhibition was 4.58%.
Turning to `COc1ccccc1Oc1nccc(-c2c(-c3ccc(F)cc3)ncn2C2CCNCC2)n1`, the inhibition amounted to 7.3%.
As to `Fc1ccc(-c2ncn(C3CCNCC3)c2-c2ccnc(Oc3ccc(Cl)cc3)n2)cc1`, the inhibition is -0.04%.
Take `O=C1NC(=O)C(c2ccccc2)=C1Nc1ccccc1`: the inhibition turned out to be 6.83%.
Take `NC(=O)CCc1ccccc1Oc1nccc(-c2c(-c3ccc(F)cc3)ncn2C2CCNCC2)n1`: the inhibition is -0.27%.
Turning to `O=C(O)c1ccc(Oc2nccc(-c3c(-c4ccc(F)cc4)ncn3C3CCNCC3)n2)cc1`, the inhibition is 3.95%.
Turning to `Fc1ccc(-c2ncn(C3CCNCC3)c2-c2ccnc(Oc3cccc(C(F)(F)F)c3)n2)cc1`, the inhibition was 4.51%.
For `Fc1ccc(Oc2nccc(-c3c(-c4ccc(F)cc4)ncn3C3CCNCC3)n2)cc1`, the inhibition amounted to 3.45%.
Take `O=C1NC(=O)C(c2cccc([N+](=O)[O-])c2)=C1Nc1cc(Cl)c(O)c(Cl)c1`: the inhibition is 5.09%.
As to `COc1ccccc1C1=C(Nc2ccccc2)C(=O)NC1=O`, the inhibition is 5.01%.
For the compound `Cc1cccc(Oc2nccc(-c3c(-c4ccc(F)cc4)ncn3C3CCNCC3)n2)c1C`, the inhibition is 4.68%.
As to `Fc1ccc(-c2ncn(C3CCNCC3)c2-c2ccnc(Oc3cccc(F)c3)n2)cc1`, the inhibition was 3.97%.

The next assay deals with 5'-AMP-activated protein kinase catalytic subunit alpha-2 (Homo sapiens) (UniProt P54646). Conditions: at 0.1 µM.
Chain of UniProt P54646 (P54646 whole entry, looked up): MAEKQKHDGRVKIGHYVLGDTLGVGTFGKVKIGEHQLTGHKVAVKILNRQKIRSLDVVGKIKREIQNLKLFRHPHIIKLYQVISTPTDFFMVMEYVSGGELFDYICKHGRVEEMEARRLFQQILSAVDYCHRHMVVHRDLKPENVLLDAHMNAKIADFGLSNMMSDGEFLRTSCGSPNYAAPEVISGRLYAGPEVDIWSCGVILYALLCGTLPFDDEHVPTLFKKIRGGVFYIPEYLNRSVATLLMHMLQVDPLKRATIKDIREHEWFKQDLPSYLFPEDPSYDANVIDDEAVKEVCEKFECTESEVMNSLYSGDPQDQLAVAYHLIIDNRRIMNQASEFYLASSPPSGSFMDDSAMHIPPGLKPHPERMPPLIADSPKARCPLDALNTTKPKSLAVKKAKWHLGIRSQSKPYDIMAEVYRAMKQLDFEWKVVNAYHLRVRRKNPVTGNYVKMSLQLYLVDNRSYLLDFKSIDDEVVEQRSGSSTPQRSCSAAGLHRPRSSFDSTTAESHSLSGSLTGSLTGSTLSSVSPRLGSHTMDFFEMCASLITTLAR
As to `CS(=O)(=O)c1ccc(Oc2nccc(-c3c(-c4ccc(F)cc4)ncn3C3CCNCC3)n2)cc1`, the inhibition amounted to 2.06%.
Same read-out and setting: for `O=C1NC(=O)C(c2ccccc2Cl)=C1Nc1cc(Cl)c(O)c(Cl)c1` the value was -0.82%; for `CC(C)(C)c1ccc(Oc2nccc(-c3c(-c4ccc(F)cc4)ncn3C3CCNCC3)n2)cc1`, 4.13%; for `COc1ccccc1Oc1nccc(-c2c(-c3ccc(F)cc3)ncn2C2CCNCC2)n1`, 4.16%.
`Fc1ccc(-c2ncn(C3CCNCC3)c2-c2ccnc(Oc3ccc(Cl)cc3)n2)cc1`: the inhibition amounted to 2.52%.
In the case of `O=C1NC(=O)C(c2ccccc2)=C1Nc1ccccc1`, the inhibition was determined as 3.83%.
As for `NC(=O)CCc1ccccc1Oc1nccc(-c2c(-c3ccc(F)cc3)ncn2C2CCNCC2)n1`, the inhibition amounted to 3.01%.
Take `Fc1ccc(-c2ncn(C3CCNCC3)c2-c2ccnc(Oc3cccc(C(F)(F)F)c3)n2)cc1`: the inhibition amounted to 3.92%.
With `Fc1ccc(Oc2nccc(-c3c(-c4ccc(F)cc4)ncn3C3CCNCC3)n2)cc1`, the inhibition turned out to be 6.3%.
Consider `O=C1NC(=O)C(c2cccc([N+](=O)[O-])c2)=C1Nc1cc(Cl)c(O)c(Cl)c1`, for which the inhibition turned out to be 1.6%.
Same read-out and setting: for `COc1ccccc1C1=C(Nc2ccccc2)C(=O)NC1=O` the value was 1.85%; for `Cc1cccc(Oc2nccc(-c3c(-c4ccc(F)cc4)ncn3C3CCNCC3)n2)c1C`, 4.56%; for `Fc1ccc(-c2ncn(C3CCNCC3)c2-c2ccnc(Oc3cccc(F)c3)n2)cc1`, 5.76%.
